This note sets out measurements from the supplement of paper PMC8007513.

This experiment concerns Trichoderma virens ATCC 9645. Put plainly: growth yield (OD600) relative to untreated control; higher = less growth inhibition. Particulars: compound concentration: 100 uM. In short, it runs like this:
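For each 96-well plate, 100 μl aliquots were prepared with Trichoderma virens ATCC 9645 spores suspended at 15,000 spores ml^−1 in potato dextrose broth. The spores had been harvested from potato dextrose agar plates after 7 days. Library compounds were present at 100 μM final, some wells also receiving a biocide at 200 ng ml^−1, and plates were grown at 30 °C with OD600 read on a BioTek EL800 at 40 h and 72 h. Reported growth, relative to the control lacking both agents, is the mean of duplicate screens.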

Structures can show the parent of a compound that is named as a salt. ± gives the standard error. In all, about 1,300 compounds went through this assay and about 75 (6%) showed an effect of 50% or more. The list shows a part of the results.

Regarding `CC(=O)O[C@@]12CO[C@@H]1C[C@H](O)[C@@]1(C)C(=O)[C@H](O)C3=C(C)[C@@H](OC(=O)[C@H](O)[C@@H](NC(=O)OC(C)(C)C)c4ccccc4)C[C@@](O)([C@@H](OC(=O)c4ccccc4)[C@H]21)C3(C)C` [Docetaxel], the growth yield was 106 ± 1.4% (40 h) and 101.3 ± 0.21% (72 h).

With `Clc1ccc(CSC(Cn2ccnc2)c2ccc(Cl)cc2Cl)cc1` (stereo not given) [Sulconazole nitrate], the growth yield came out at 2.22 ± 0.64% (40 h) and 1.78 ± 0.52% (72 h).

Consider `Fc1ccc(C(c2ccc(F)cc2)N2CCN(C/C=C/c3ccccc3)CC2)cc1` [Flunarizine dihydrochloride], for which the growth yield is, setting by setting: (40 h) 93.9 ± 4.3%; (72 h) 114 ± 2.4%.

For `CCCCC(=O)O[C@H]1CC[C@H]2[C@@H]3CCc4cc(O)ccc4[C@H]3CC[C@]12C` [Estradiol Valerate], the growth yield runs as follows: (40 h) 101 ± 8.9%; (72 h) 94.6 ± 3.8%.

Turning to `N=C(N)c1ccc(OCCCCCOc2ccc(C(=N)N)cc2)cc1` [Pentamidine isethionate], the growth yield was found to be 1.91 ± 0.95% (40 h) and 1.78 ± 0.52% (72 h).

For the molecule `Cn1c(NCCN(CCO)CCCc2ccc([N+](=O)[O-])cc2)cc(=O)n(C)c1=O` [Nifekalant], the growth yield (40 h) came out at 97.69 ± 0.48% and the growth yield (72 h) worked out at 96.17 ± 0.73%.

Turning to `OCCOCCN1CCN(C2=Nc3ccccc3Sc3ccccc32)CC1` [Quetiapine hemifumarate], the growth yield reads like this: (40 h) 108 ± 15%; (72 h) 106 ± 12%.

Regarding `CCC(=O)O[C@@H](O[P@](=O)(CCCCc1ccccc1)CC(=O)N1C[C@H](C2CCCCC2)C[C@H]1C(=O)O)C(C)C` [Fosinopril], the growth yield is, setting by setting: (40 h) 109.8 ± 0.48%; (72 h) 103 ± 3.5%.

`COc1cccc2c1C(=O)c1c(O)c3c(c(O)c1C2=O)C[C@@](O)(C(=O)CO)C[C@@H]3O[C@H]1C[C@H](N)[C@H](O)[C@H](C)O1` [Doxorubicin hydrochloride] had a growth yield (40 h) of 81.6% and a growth yield (72 h) of 92.3%.

In the case of `CC1(C)S[C@@H]2[C@H](NC(=O)[C@H](N)c3ccc(O)cc3)C(=O)N2[C@H]1C(=O)O` [Amoxicillin], the growth yield was determined as 105 ± 1.1% (40 h) and 109 ± 2.1% (72 h).

On to `CN[C@@H]1[C@H](O[C@H]2[C@H](O[C@H]3[C@H](O)[C@@H](O)[C@H](N=C(N)N)[C@@H](O)[C@@H]3N=C(N)N)O[C@@H](C)[C@]2(O)C=O)O[C@@H](CO)[C@H](O)[C@H]1O` [Streptomycin sulfate], for which the growth yield is, setting by setting: (40 h) 103 ± 1.3%; (72 h) 104.35 ± 0.1%.

Turning to `Nc1nc(Cl)nc2c1ncn2[C@H]1C[C@H](O)[C@@H](CO)O1` [Cladribine], the growth yield came to 106 ± 1.1% (40 h) and 103 ± 1.3% (72 h).

On to `CCCCCCC[N+](CC)(CC)CCCCc1ccc(Cl)cc1` [Clofilium tosylate], for which the growth yield amounted to 87.2 ± 1.4% (40 h) and 101 ± 0.52% (72 h).

As for `CNCCCC1c2ccccc2C=Cc2ccccc21` [Protriptyline hydrochloride], the growth yield reads like this: (40 h) 101 ± 1.6%; (72 h) 104 ± 2%.

For `C[C@]12CCC(=O)C=C1CC[C@@H]1[C@@H]2[C@@H](O)C[C@@]2(C)[C@H]1CC[C@]2(O)C(=O)CO` [Hydrocortisone base], the growth yield reads like this: (40 h) 99 ± 3.6%; (72 h) 98.2 ± 2.5%.

Take `Oc1ncnc2[nH]ncc12` [Allopurinol]: the growth yield worked out at 102% (40 h) and 98.3 ± 1.4% (72 h).

As for `Cc1onc(-c2ccccc2)c1-c1ccc(S(N)(=O)=O)cc1` [Valdecoxib], the growth yield was determined as 107 ± 11% (40 h) and 104 ± 8.3% (72 h).

With `COc1ccc(CCN(C)CCCC(C#N)(c2ccc(OC)c(OC)c2)C(C)C)cc1OC` (stereo not given) [Verapamil hydrochloride], the growth yield by setting is: (40 h) 77.2 ± 3.5%; (72 h) 74.4 ± 2.8%.

In the case of `CCCc1cc(=O)[nH]c(=S)[nH]1` [Propylthiouracil], the growth yield (40 h) was found to be 104 ± 0.48% and the growth yield (72 h) amounted to 101 ± 2%.

With `C[N+]1(CCCCC[N+]2(C)CCCC2)CCCC1` [Pentolinium bitartrate], the growth yield (40 h) turned out to be 102 ± 3% and the growth yield (72 h) was found to be 102 ± 3%.

Turning to `CN(C)CCCN1c2ccccc2Sc2ccccc21` [Promazine hydrochloride], the growth yield reads like this: (40 h) 91.33 ± 0.16%; (72 h) 95.6%.

Take `Cc1cc(C(C)(C)C)c(O)c(C)c1CC1=NCCN1` [Oxymetazoline hydrochloride]: the growth yield is, setting by setting: (40 h) 101 ± 2.1%; (72 h) 102.9 ± 0.73%.

On to `NS(=O)(=O)c1cc(C(=O)O)cc(N2CCCC2)c1Oc1ccccc1` [Piretanide], for which the growth yield was found to be 109 ± 3.6% (40 h) and 104 ± 1.7% (72 h).

On to `COc1ccc([C@@H]2CC(=O)c3c(O)cc(O[C@@H]4O[C@H](CO[C@@H]5O[C@@H](C)[C@H](O)[C@@H](O)[C@H]5O)[C@@H](O)[C@H](O)[C@H]4O)cc3O2)cc1O` [Hesperidin], for which the growth yield reads like this: (40 h) 99.43 ± 0.95%; (72 h) 99.42 ± 0.84%.

Regarding `CC(C)(C(=O)O)c1ccc(C(O)CCCN2CCC(C(O)(c3ccccc3)c3ccccc3)CC2)cc1` (stereo not given) [Fexofenadine hydrochloride], the growth yield is 101 ± 4% (40 h) and 97.6 ± 3% (72 h).

Consider `Cc1c(C)c2c(c(C)c1O)CCC(C)(COc1ccc(CC3SC(=O)NC3=O)cc1)O2` (stereo not given) [Troglitazone], for which the growth yield (40 h) stood at 102 ± 5.9% and the growth yield (72 h) was 92.9 ± 1.3%.

Turning to `COC(c1ccccc1)(c1ccccc1)[C@H](Oc1nc(C)cc(C)n1)C(=O)O` [Ambrisentan], the growth yield reads like this: (40 h) 98.48 ± 0.32%; (72 h) 99.63 ± 0.63%.

Regarding `CSc1ccc2c(c1)C(N1CCN(C)CC1)Cc1ccccc1S2` (stereo not given) [Methiothepin maleate], the growth yield by setting is: (40 h) 43.5 ± 3.5%; (72 h) 75.4 ± 3.2%.

As to `CC(C(=O)O)c1ccc2c(c1)Cc1cccnc1O2` (stereo not given) [Pranoprofen], the growth yield worked out at 91.2 ± 1.6% (40 h) and 90.3 ± 0.1% (72 h).

`COC(=O)Nc1nc2cc(C(=O)c3ccccc3)ccc2[nH]1` [Mebendazole] had a growth yield (40 h) of 89.4 ± 6.2% and a growth yield (72 h) of 93.1 ± 3.8%.

`CC1(C)S[C@@H]2[C@H](NC(=O)[C@H](NC(=O)N3CCNC3=O)c3ccccc3)C(=O)N2[C@H]1C(=O)O` [Azlocillin sodium salt]: the growth yield runs as follows: (40 h) 96.26 ± 0.32%; (72 h) 94.81 ± 0.21%.

Consider `CC(C)c1ccc2oc3nc(N)c(C(=O)O)cc3c(=O)c2c1` [Amlexanox], for which the growth yield came out at 89 ± 0.95% (40 h) and 91.56 ± 0.52% (72 h).

For `Cc1cc2c(cc1S(N)(=O)=O)S(=O)(=O)CCC2` [Meticrane], the growth yield runs as follows: (40 h) 101 ± 1.6%; (72 h) 98.37 ± 0.21%.

As for `NCCNCCNCCNCCN` [Tetraethylenepentamine pentahydrochloride], the growth yield came out at 103 ± 2.5% (40 h) and 99.8 ± 2.9% (72 h).

Regarding `CN1C(C)(C)CCCC1(C)C` [Pempidine], the growth yield is, setting by setting: (40 h) 96.6 ± 3.8%; (72 h) 96 ± 1.4%.

Turning to `Cc1onc(-c2c(Cl)cccc2Cl)c1C(=O)N[C@@H]1C(=O)N2[C@@H]1SC(C)(C)[C@@H]2C(=O)O` [Dicloxacillin sodium salt hydrate], the growth yield is 100% (40 h) and 96.7% (72 h).

For the molecule `CN(C)/N=N/c1[nH]cnc1C(N)=O` [Dacarbazine], the growth yield by setting is: (40 h) 95.6 ± 1.9%; (72 h) 98 ± 3.4%.

On to `C[N+](C)(C)CCCCCC[N+](C)(C)C` [Hexamethonium dibromide dihydrate], for which the growth yield was 98.5 ± 1.3% (40 h) and 95.96 ± 0.1% (72 h).

`CC[N+](C)(C)Cc1ccccc1Br` [Bretylium tosylate] registered a growth yield (40 h) of 99.3 ± 3.6% and a growth yield (72 h) of 97.5%.

For the molecule `COc1ccc(C(Cl)=C(c2ccc(OC)cc2)c2ccc(OC)cc2)cc1` [Chlorotrianisene], the growth yield (40 h) came out at 101 ± 2.7% and the growth yield (72 h) is 96.7 ± 1.5%.
